Measured values published in article PMC6212790.
The list shows a part of the results. At the low end of the ranking the order means little.
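Note: rank score from −0.5 (least bound) to 0.5 (best bound).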

Each sequence was assayed against T1, GST-Rok (full length) (UniProt O34857) (assay: protein binding microarray). Conditions: Rok is a gene silencer of Bacillus subtilis; high values mean tight binding; most listed sequences are background and not binding sites; double strand, one strand shown.
T1 sequence: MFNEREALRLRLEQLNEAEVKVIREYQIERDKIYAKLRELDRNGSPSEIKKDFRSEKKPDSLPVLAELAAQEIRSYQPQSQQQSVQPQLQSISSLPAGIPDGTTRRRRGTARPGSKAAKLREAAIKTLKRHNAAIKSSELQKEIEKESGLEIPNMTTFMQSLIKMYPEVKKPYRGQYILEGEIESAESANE
ACTGCTCG was tested, and the binding signal was -0.1 E-score.
Sequence GCCCTAAC has a binding signal of -0.212 E-score.
CCCTTCAC gave a binding signal of -0.274 E-score.
With ATGTTATG the binding signal was 0.209 E-score.
Work on ATGGGAAT yielded a binding signal of 0.146 E-score.
CCACAGCA was tested, and the binding signal was 0.0254 E-score.
For CGATGCTC, the binding signal was -0.206 E-score.
AAAGTTGA gave a binding signal of -0.0334 E-score.
CGGCGGCA was tested, and the binding signal was -0.198 E-score.
AACTGCGG gave a binding signal of -0.104 E-score.
Sequence CGTAGATA has a binding signal of 0.258 E-score.
In the case of AAACGGCC, the binding signal is reported as -0.248 E-score.
Sequence CGAAAACA has a binding signal of 0.252 E-score.
With CATCCACC the binding signal was -0.141 E-score.
Work on GCATCGTA yielded a binding signal of 0.0441 E-score.
In the case of CTCTCCGC, the binding signal is reported as -0.221 E-score.
Sequence ACGATCCG has a binding signal of 0.218 E-score.
For GCCGCTGA, the binding signal was -0.326 E-score.
Sequence CCATATGA has a binding signal of 0.0423 E-score.
CAATTACG gave a binding signal of 0.221 E-score.
AATTATCA showed a binding signal of 0.251 E-score.
Work on TCGACACA yielded a binding signal of -0.0148 E-score.
CTGCACAC was tested, and the binding signal was -0.074 E-score.
Sequence AACCGTAG has a binding signal of 0.0498 E-score.
ATCGTCCC was tested, and the binding signal was -0.273 E-score.
For CCTGCAGA, the binding signal was -0.0423 E-score.
With CGACAAAC the binding signal was -0.223 E-score.
Work on AGCTGTGG yielded a binding signal of -0.327 E-score.
CCCCAGGG gave a binding signal of -0.365 E-score.
In the case of AACACGTC, the binding signal is reported as -0.0845 E-score.
CTTCTTAC showed a binding signal of 0.13 E-score.
CATGATTA showed a binding signal of 0.101 E-score.
In the case of GCACGTCA, the binding signal is reported as -0.204 E-score.
TCAGATAA was tested, and the binding signal was 0.247 E-score.
CACAGGTC gave a binding signal of -0.178 E-score.
With GATGGTAA the binding signal was 0.279 E-score.
In the case of TGGGACAA, the binding signal is reported as -0.0148 E-score.
In the case of AGTGGGAA, the binding signal is reported as -0.23 E-score.
For AGTCATTA, the binding signal was 0.0538 E-score.
CAGATCAA was tested, and the binding signal was -0.0576 E-score.
For AGTCTAAT, the binding signal was -0.0914 E-score.
AGACTGCG gave a binding signal of -0.0525 E-score.
GTAGATAA was tested, and the binding signal was 0.407 E-score.
Work on CTCAGCAG yielded a binding signal of -0.0802 E-score.
CGAGTATA showed a binding signal of 0.226 E-score.
CGACGCCG gave a binding signal of -0.26 E-score.
For GATGTGGC, the binding signal was -0.00287 E-score.
For ATTCCGAA, the binding signal was 0.17 E-score.
CATATGGC showed a binding signal of -0.0788 E-score.
In the case of CGAAAGAA, the binding signal is reported as -0.184 E-score.
In the case of CAAGTTAC, the binding signal is reported as 0.122 E-score.
Sequence ACCCAACA has a binding signal of -0.083 E-score.
TCGCCCGA showed a binding signal of -0.296 E-score.
With AGAGTTAT the binding signal was 0.147 E-score.
For AAGAACGG, the binding signal was -0.0347 E-score.
AAGATGGC showed a binding signal of -0.0108 E-score.
AACCTGAA gave a binding signal of -0.0441 E-score.
GCCTACCA was tested, and the binding signal was 0.00758 E-score.
Sequence GGCGGACC has a binding signal of -0.451 E-score.
With CATTCTAA the binding signal was 0.0993 E-score.
ACCCAATG gave a binding signal of -0.0502 E-score.
With AGTAGAAT the binding signal was 0.42 E-score.
For AGATAGTC, the binding signal was 0.0258 E-score.
Sequence GGACCGTA has a binding signal of 0.0306 E-score.
In the case of TCCCCCAA, the binding signal is reported as -0.317 E-score.
Sequence ACAAAAAT has a binding signal of 0.0387 E-score.
AGGCAGCA gave a binding signal of -0.152 E-score.
With AAGACTCG the binding signal was -0.158 E-score.
AAGTTTAT showed a binding signal of 0.0875 E-score.
AACGGCTG was tested, and the binding signal was 0.0377 E-score.
For ACTGTAAC, the binding signal was 0.201 E-score.
CTGTGGAA gave a binding signal of -0.0428 E-score.
In the case of CCAGGGAC, the binding signal is reported as -0.258 E-score.
AACTTTGA was tested, and the binding signal was -0.0517 E-score.
Sequence CCGATAAG has a binding signal of -0.0743 E-score.
GCTAAGAA was tested, and the binding signal was 0.112 E-score.
Work on ATATGGAT yielded a binding signal of 0.231 E-score.
With CAGAATGG the binding signal was -0.146 E-score.
CATAAGTA showed a binding signal of 0.269 E-score.
In the case of AACTTTTA, the binding signal is reported as 0.243 E-score.
ATTCTGCG showed a binding signal of 0.047 E-score.
Sequence TACAGCTA has a binding signal of 0.179 E-score.
Sequence AACTGTCA has a binding signal of 0.139 E-score.
With AGCTATGG the binding signal was 0.129 E-score.
Work on CCGTCGTC yielded a binding signal of -0.197 E-score.
Work on AAGTGTCG yielded a binding signal of 0.0801 E-score.
With CGACGTAG the binding signal was -0.0659 E-score.
With AGAATCCG the binding signal was 0.179 E-score.
With AGGTTAAT the binding signal was 0.137 E-score.
In the case of GAAGTGCC, the binding signal is reported as -0.189 E-score.
CCCCATCC gave a binding signal of -0.38 E-score.
Sequence ACGATTGA has a binding signal of 0.182 E-score.
For CCGTTCTA, the binding signal was 0.0676 E-score.
Sequence GAGCAAGC has a binding signal of -0.0562 E-score.
ATATGTGG showed a binding signal of 0.118 E-score.
For TCCCTGCA, the binding signal was -0.143 E-score.
For AATTGACG, the binding signal was 0.213 E-score.
Sequence CGTCAATC has a binding signal of -0.119 E-score.
GGCATCCA gave a binding signal of -0.322 E-score.
CGGCCAAC showed a binding signal of -0.111 E-score.
CCACGTGA was tested, and the binding signal was -0.105 E-score.
GTACGACA showed a binding signal of 0.0676 E-score.
With AAGCAGCA the binding signal was -0.0118 E-score.
With CCTAGATC the binding signal was 0.174 E-score.
Sequence AAGGCGGG has a binding signal of -0.288 E-score.
With GCGTGTAC the binding signal was -0.0182 E-score.
Work on CAATCTTC yielded a binding signal of 0.14 E-score.
GTGGACAA was tested, and the binding signal was -0.11 E-score.
CCCTGAAG showed a binding signal of -0.183 E-score.
CCGACACG was tested, and the binding signal was -0.36 E-score.
